In the supplement of paper PMC3334620:
Whole data set: some 33,000 sequences, median “E-score (-0.5 to 0.5)” near -0.041, cut for the highest 2% near 0.37. Some of the results follow.

What follows are sequences tested against T1, Ecm22 (UniProt Q05958) (assay: PBM E-score (8-mer binding enrichment) (E-score (-0.5 to 0.5)); higher = stronger / more preferred TF binding; most listed sequences are background and not binding sites). Conditions: protein concentration: 200 nM; construct: GST-full length.
T1 sequence: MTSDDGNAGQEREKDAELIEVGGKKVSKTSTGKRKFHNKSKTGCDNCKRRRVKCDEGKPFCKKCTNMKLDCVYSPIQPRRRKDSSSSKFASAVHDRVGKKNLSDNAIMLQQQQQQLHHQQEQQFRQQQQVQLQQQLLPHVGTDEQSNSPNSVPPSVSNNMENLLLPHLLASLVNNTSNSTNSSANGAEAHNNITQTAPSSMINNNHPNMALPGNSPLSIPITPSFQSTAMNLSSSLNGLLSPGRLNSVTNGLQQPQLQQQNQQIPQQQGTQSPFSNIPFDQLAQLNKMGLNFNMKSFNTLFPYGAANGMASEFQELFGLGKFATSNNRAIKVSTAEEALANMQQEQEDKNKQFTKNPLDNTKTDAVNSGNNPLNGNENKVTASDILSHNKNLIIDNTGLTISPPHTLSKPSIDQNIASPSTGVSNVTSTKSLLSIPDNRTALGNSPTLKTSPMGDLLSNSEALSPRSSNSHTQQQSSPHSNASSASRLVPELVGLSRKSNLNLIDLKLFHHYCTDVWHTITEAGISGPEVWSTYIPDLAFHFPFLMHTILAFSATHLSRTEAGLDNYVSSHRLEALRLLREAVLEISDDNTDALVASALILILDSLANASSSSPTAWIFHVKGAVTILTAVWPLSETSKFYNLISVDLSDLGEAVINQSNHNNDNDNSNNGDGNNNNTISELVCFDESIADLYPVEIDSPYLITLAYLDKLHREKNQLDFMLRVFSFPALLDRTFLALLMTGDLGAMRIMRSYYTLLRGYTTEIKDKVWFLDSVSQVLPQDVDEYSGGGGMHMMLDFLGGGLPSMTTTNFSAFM
Procedure, shortened: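 Yeast transcription factors, full-length or as DNA-binding domains, were expressed with a GST tag using PURExpress in vitro transcription/translation. At about 100-200 nM they were applied to universal all-10-mer Agilent arrays, double-stranded by primer extension on fresh or once-stripped slides. Fluorescent anti-GST detected bound protein, and masliner normalised the scans. E-scores for ungapped eight-base words, pooled with reverse complements, came from the Universal PBM Analysis Suite.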

| Sequence | PBM E-score |
| --- | --- |
| CATTATGA | -0.0704 |
| CACTAGTG | -0.173 |
| AGCCCCTC | 0.0236 |
| CCCAAAAC | 0.101 |
| AGACGGGG | -0.0581 |
| TAATTATA | 0.252 |
| CTGAATAA | -0.128 |
| GGCGAAGA | -0.193 |
| CTTAGAAG | -0.211 |
| AACGACTT | 0.336 |
| AAACGTTG | 0.0326 |
| CCCGGGTA | -6e-05 |
| GACTCCTA | -0.208 |
| AGCGTATG | 0.136 |
| AGCATCGC | 0.054 |
| CATTCTAC | -0.133 |
| CAGTCATG | -0.314 |
| CAATACTA | -0.174 |
| CGGCTTAA | 0.145 |
| ACCGTGCG | 0.161 |
| AACATACA | -0.0762 |
| AGCAATAG | -0.0955 |
| GTTCCTCA | 0.069 |
| GTAGGCAA | -0.0916 |
| AGAGGCTA | -0.209 |

| Sequence | PBM E-score |
| --- | --- |
| ACGTCGTG | 0.117 |
| CCCCACAG | -0.131 |
| GATCTACC | -0.0079 |
| ATTGCTGG | -0.159 |
| TATCCACA | -0.065 |
| CTATGGAC | -0.152 |
| ACGTCTTG | -0.113 |
| AGTTTCCA | -0.0965 |
| CGGGCTGC | -0.0136 |
| CTGGCTAC | 0.146 |
| GATTTATA | 0.246 |
| AACCCTGC | -0.0164 |
| ATGTGTCA | -0.128 |
| CACATATG | -0.147 |
| ACAATCCT | -0.0917 |
| CGTAGCTA | 0.271 |
| AATAATCC | -0.0225 |
| AACTCTGG | -0.154 |
| ACCCGCCC | -0.0908 |
| GTACCTAA | 0.201 |
| CAGCTCGC | 0.248 |
| AAAGAGCT | -0.209 |
| AGTTGAAT | 0.0147 |
| TCCACCAA | -0.236 |
| AATTTCTC | 0.0237 |

| Sequence | PBM E-score |
| --- | --- |
| CTGAAAGC | -0.0788 |
| ATGGACTG | -0.151 |
| GCAAGCGA | 0.187 |
| AACCAAGA | -0.239 |
| AAGGGATA | -0.122 |
| CGACAACC | 0.143 |
| AGGACCGC | 0.0459 |
| GAAATTTC | -0.0255 |
| GAGTACTA | 0.163 |
| AGCTATAG | -0.308 |
| CGACTACA | 0.0923 |
| AGCAAAGA | -0.229 |
| GGGGGTAC | 0.135 |
| AACGTTGG | 0.00869 |
| AGGAGACT | -0.28 |
| CACGCTCA | -0.155 |
| CGTGCGCC | -0.0925 |
| ATGTGCGA | 0.292 |
| GCGGATAC | 0.151 |
| ATGGCGGA | -0.147 |
| ATTGGTCC | -0.154 |
| CACCAAGA | -0.117 |
| CTAAAGGA | -0.0466 |
| GGGTAGGA | -0.288 |
| CTCCACAA | -0.074 |

| Sequence | PBM E-score |
| --- | --- |
| CCGAACGG | 0.222 |
| GCCCAAAA | -0.212 |
| ATTTTTTG | -0.16 |
| AGTGGCAA | -0.103 |
| ATAAGTCG | 0.144 |
| AACCCTCC | -0.228 |
| ACGAGCGA | 0.409 |
| GACTACAA | -0.102 |
| CGCAGATA | -0.117 |
| ATCTCGAC | 0.0736 |
| GAATGGCA | -0.17 |
| CAGGAGGA | -0.14 |
| GTATCTAA | 0.0769 |
| TAACGAAA | 0.296 |
| AGGCAGTA | -0.0211 |
| GGCAACAC | -0.266 |
| ACAAAAAC | 0.129 |
| GAACATAC | 0.166 |
| TCCGTACA | 0.379 |
| AGTCGTTA | 0.273 |
| ACGGTGTA | 0.299 |
| CGTCCCCC | -0.206 |
| ATAATCGG | 0.154 |
| ATCTGATG | -0.133 |
| ATACCATC | -0.0524 |

| Sequence | PBM E-score |
| --- | --- |
| CCTTGTTA | -0.0411 |
| GCGGAAAC | -0.0743 |
| GAGCGATA | 0.24 |
| ACAGTGCG | -0.0346 |
| ACTCCTCG | 0.338 |
| GCGCACAA | 0.144 |
| AAGAATAT | -0.113 |
| CTAGTTGC | -0.155 |
| ATTCCTAA | 0.0821 |
| CTCTGCAA | -0.107 |
| TGTCATAA | 0.0952 |
| GCGACTCC | -0.049 |
| GATCAAAA | -0.049 |
| CGACGTTC | 0.192 |
| AAACGAAG | 0.457 |
| GTGCGCCA | -0.0489 |
| GTAAAAAA | 0.0457 |
| TGGCTAAA | -0.126 |
| AACTCTTG | -0.214 |
| AGTCTGGG | -0.113 |
| AACACGGC | -0.222 |
| AGACAGAT | -0.115 |
| AGATGGGA | -0.224 |
| AGTCGATA | 0.0979 |
| AGCAATGC | 0.0115 |

| Sequence | PBM E-score |
| --- | --- |
| ATAAGGCC | -0.15 |
| ACCAGTCT | -0.0118 |
| CACTAATG | 0.0296 |
| ACGTCTGG | -0.11 |
| AAGTATAC | 0.255 |
| GTGACGCA | -0.0738 |
| ACTTGAAC | 0.118 |
| ACTCCCCC | -0.134 |
| CGTCTCTC | 0.126 |
| ACCGGTTG | 0.111 |
| ACTCTTCA | 0.0478 |
| CATAATGG | -0.242 |
| GTCGAATA | 0.173 |
| GATATGAA | -0.0143 |
| AGACGGAG | -0.0869 |
| ATACGCTA | 0.272 |
| CCGTTACC | 0.122 |
| CACAGCGA | 0.111 |
| ATTATGTA | 0.139 |
| ATCTTAGA | -0.0556 |
| CCCCAGGG | -0.0745 |
| TAGAGAGA | -0.134 |
| GTGATAAC | -0.179 |
| ACAAATCA | 0.00407 |
| AGAGATGG | -0.121 |

| Sequence | PBM E-score |
| --- | --- |
| GGATCACA | -0.0526 |
| CACCGCCA | 0.00889 |
| GCGTCGCC | -0.00519 |
| CAATTGCC | -0.216 |
| ATGCCCAC | -0.0975 |
| CGGTTCTA | 0.00268 |
| CTCCAACC | -0.0849 |
| CTCGAAAA | -0.0476 |
| CAAAAACG | 0.141 |
| CGGGGGCA | -0.133 |
| CAACCAAG | -0.124 |
| AAGCCCGG | -0.0641 |
| CGCTCATA | 0.182 |
| AGATACCC | -0.0326 |
| GACGAATC | 0.106 |
| AGTAACAG | -0.072 |
| GAACGATA | 0.416 |
| ACATGAGC | -0.0386 |
| CAGACCCC | -0.411 |
| ACCTCTGG | -0.156 |
| AAACCCTA | -0.258 |
| CGGAGCAC | -0.0149 |
